Assay results: patent publication US20250000993A1, “ANTI-HUMAN CD33 BET DEGRADER ANTIBODY-DRUG CONJUGATES” (AbbVie Inc., priority 2023, published 2025)

Molecular target: CD33-expressing HEK-293 cells (Homo sapiens, UniProt P20138)
Experiment: Flow cytometry (FACS titration) binding to CD33-expressing HEK-293 cells
Conditions: 4° C. for 2 hours

Sequence of CD33-expressing HEK-293 cells (P20138 18-364): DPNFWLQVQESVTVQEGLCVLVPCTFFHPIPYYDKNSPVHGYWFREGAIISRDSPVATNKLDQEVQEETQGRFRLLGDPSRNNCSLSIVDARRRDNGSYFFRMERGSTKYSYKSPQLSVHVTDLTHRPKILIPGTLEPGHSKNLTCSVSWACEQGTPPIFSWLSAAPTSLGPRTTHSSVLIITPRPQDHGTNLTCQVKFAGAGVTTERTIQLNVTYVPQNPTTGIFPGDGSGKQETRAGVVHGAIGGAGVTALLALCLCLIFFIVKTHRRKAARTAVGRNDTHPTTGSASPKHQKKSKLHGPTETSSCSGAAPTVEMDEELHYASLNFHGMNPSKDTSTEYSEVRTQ

B1: mAb2: negative control human anti-CMV IgG; heavy chain SEQ ID NO: 14, light chain SEQ ID NO: 15 (antibody)
heavy: EEQVLESGGGLVKPGGSLRLSCAASGFTFSPYSVFWVRQAPGKGLEWVSSINSDSTYKYYADSVKGRFTISRDNAENSIFLQMNSLRAEDTAVYYCARDRSYYAFSSGSLSDYYYGLDVWGQGTTVIVSS[sequence of human IgG1 constant region not given]
light: DIVMTQSPLSLSVTPGEPASISCRSSQSLLHTNGYNYLDWYVQKPGQSPQLLIYLASNRASGVPDRFSGSGSGTDFTLKISRVETEDVGVYYCMQALQIPRTFGQGTKVEIKRTVAAPSVFIFPPSDEQLKSGTASVVCLLNNFYPREAKVQWKVDNALQSGNSQESVTEQDSKDSTYSLSSTLTLSKADYEKHKVYACEVTHQGLSSPVTKSFNRGEC
Question: Which “binding to CD33-expressing HEK-293 cells” value does the source give for B1 here?
Answer: No binding was observed
